Assay results from PMC9911399, “Two distinct binding modes provide the RNA-binding protein RbFox with extraordinary sequence specificity”.
Numbering of substitutions follows the chain as printed; changes in the protein carry UniProt numbers. This is one part of the list.

T1: RBFOX1 RRM (Homo sapiens, UniProt Q9NWB1 109-208)
T1 sequence: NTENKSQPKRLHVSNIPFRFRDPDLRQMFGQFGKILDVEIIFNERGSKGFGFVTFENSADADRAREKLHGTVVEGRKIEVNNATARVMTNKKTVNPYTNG

B1: AAUUUGC (DNA:RNA)
RNA: GGGAGACCGGAAUUCAGAUUGUCCAAUUUGCUUAAAUCCCGUCGUAGCCACCA
DNA 1: CAATCTGAATTCCGGTCTCCC
DNA 2: TGGTGGCTACGACGGGATT
B2: GUAGCGC (DNA:RNA)
RNA: B1 RNA with A25G, A26U, U27A, U28G, U29C
DNA 1: CAATCTGAATTCCGGTCTCCC
DNA 2: TGGTGGCTACGACGGGATT
B3: UCGCAAU (DNA:RNA)
RNA: GGGAGACCGGAAUUCAGAUUGUCCUCGCAAUUUAAAUCCCGUCGUAGCCACCA
DNA 1: CAATCTGAATTCCGGTCTCCC
DNA 2: TGGTGGCTACGACGGGATT
B4: UACAGAG (DNA:RNA)
RNA: B3 RNA with C26A, G27C, C28A, A29G, U31G
DNA 1: CAATCTGAATTCCGGTCTCCC
DNA 2: TGGTGGCTACGACGGGATT
B5: UGGGCAG (DNA:RNA)
RNA: B3 RNA with C26G, C28G, A29C, U31G
DNA 1: CAATCTGAATTCCGGTCTCCC
DNA 2: TGGTGGCTACGACGGGATT
B6: UAGGUCU (DNA:RNA)
RNA: B3 RNA with C26A, C28G, A29U, A30C
DNA 1: CAATCTGAATTCCGGTCTCCC
DNA 2: TGGTGGCTACGACGGGATT
B7: UGUGCGA (DNA:RNA)
RNA: B1 RNA with A25U, A26G, U28G, U29C, C31A
DNA 1: CAATCTGAATTCCGGTCTCCC
DNA 2: TGGTGGCTACGACGGGATT
B8: CAUGCUU (DNA:RNA)
RNA: B1 RNA with A25C, U28G, U29C, G30U, C31U
DNA 1: CAATCTGAATTCCGGTCTCCC
DNA 2: TGGTGGCTACGACGGGATT
B9: UAUGCCC (DNA:RNA)
RNA: B1 RNA with A25U, U28G, U29C, G30C
DNA 1: CAATCTGAATTCCGGTCTCCC
DNA 2: TGGTGGCTACGACGGGATT
B10: UAGCUUU (DNA:RNA)
RNA: B3 RNA with C26A, A29U, A30U
DNA 1: CAATCTGAATTCCGGTCTCCC
DNA 2: TGGTGGCTACGACGGGATT
B11: GCCCUAG (DNA:RNA)
RNA: B3 RNA with U25G, G27C, A29U, U31G
DNA 1: CAATCTGAATTCCGGTCTCCC
DNA 2: TGGTGGCTACGACGGGATT
B12: UUCAUCA (DNA:RNA)
RNA: B1 RNA with A25U, A26U, U27C, U28A, G30C, C31A
DNA 1: CAATCTGAATTCCGGTCTCCC
DNA 2: TGGTGGCTACGACGGGATT
B13: ACCGGGA (DNA:RNA)
RNA: B1 RNA with A26C, U27C, U28G, U29G, C31A
DNA 1: CAATCTGAATTCCGGTCTCCC
DNA 2: TGGTGGCTACGACGGGATT
B14: CUUUGUG (DNA:RNA)
RNA: B1 RNA with A25C, A26U, U29G, G30U, C31G
DNA 1: CAATCTGAATTCCGGTCTCCC
DNA 2: TGGTGGCTACGACGGGATT
B15: AUCCAAA (DNA:RNA)
RNA: B3 RNA with U25A, C26U, G27C, U31A
DNA 1: CAATCTGAATTCCGGTCTCCC
DNA 2: TGGTGGCTACGACGGGATT
B16: AGCUAGU (DNA:RNA)
RNA: B1 RNA with A26G, U27C, U29A, C31U
DNA 1: CAATCTGAATTCCGGTCTCCC
DNA 2: TGGTGGCTACGACGGGATT
B17: GCCUACG (DNA:RNA)
RNA: B3 RNA with U25G, G27C, C28U, A30C, U31G
DNA 1: CAATCTGAATTCCGGTCTCCC
DNA 2: TGGTGGCTACGACGGGATT
B18: CCUGGCA (DNA:RNA)
RNA: B1 RNA with A25C, A26C, U28G, U29G, G30C, C31A
DNA 1: CAATCTGAATTCCGGTCTCCC
DNA 2: TGGTGGCTACGACGGGATT
B19: GUCGCCG (DNA:RNA)
RNA: GGGAGACCGGAAUUCAGAUUGUCCGUCGCCGUUAAAUCCCGUCGUAGCCACCA
DNA 1: CAATCTGAATTCCGGTCTCCC
DNA 2: TGGTGGCTACGACGGGATT
B20: AGGGAAU (DNA:RNA)
RNA: B3 RNA with U25A, C26G, C28G
DNA 1: CAATCTGAATTCCGGTCTCCC
DNA 2: TGGTGGCTACGACGGGATT
B21: GCAAAGC (DNA:RNA)
RNA: B1 RNA with A25G, A26C, U27A, U28A, U29A
DNA 1: CAATCTGAATTCCGGTCTCCC
DNA 2: TGGTGGCTACGACGGGATT
B22: CGCUGUU (DNA:RNA)
RNA: B1 RNA with A25C, A26G, U27C, U29G, G30U, C31U
DNA 1: CAATCTGAATTCCGGTCTCCC
DNA 2: TGGTGGCTACGACGGGATT
B23: UUUUGAC (DNA:RNA)
RNA: B1 RNA with A25U, A26U, U29G, G30A
DNA 1: CAATCTGAATTCCGGTCTCCC
DNA 2: TGGTGGCTACGACGGGATT
B24: CGCUUUA (DNA:RNA)
RNA: B1 RNA with A25C, A26G, U27C, G30U, C31A
DNA 1: CAATCTGAATTCCGGTCTCCC
DNA 2: TGGTGGCTACGACGGGATT
B25: CAGCGUG (DNA:RNA)
RNA: B3 RNA with U25C, C26A, A29G, A30U, U31G
DNA 1: CAATCTGAATTCCGGTCTCCC
DNA 2: TGGTGGCTACGACGGGATT
B26: CUCCGCC (DNA:RNA)
RNA: B19 RNA with G25C, G28C, C29G, G31C
DNA 1: CAATCTGAATTCCGGTCTCCC
DNA 2: TGGTGGCTACGACGGGATT
B27: CCUCUUC (DNA:RNA)
RNA: B1 RNA with A25C, A26C, U28C, G30U
DNA 1: CAATCTGAATTCCGGTCTCCC
DNA 2: TGGTGGCTACGACGGGATT
B28: UCAGCCG (DNA:RNA)
RNA: B19 RNA with G25U, U26C, C27A
DNA 1: CAATCTGAATTCCGGTCTCCC
DNA 2: TGGTGGCTACGACGGGATT
B29: AAUGCUG (DNA:RNA)
RNA: B1 RNA with U28G, U29C, G30U, C31G
DNA 1: CAATCTGAATTCCGGTCTCCC
DNA 2: TGGTGGCTACGACGGGATT
B30: GAAUGUG (DNA:RNA)
RNA: B1 RNA with A25G, U27A, U29G, G30U, C31G
DNA 1: CAATCTGAATTCCGGTCTCCC
DNA 2: TGGTGGCTACGACGGGATT
B31: AGAUUAU (DNA:RNA)
RNA: B1 RNA with A26G, U27A, G30A, C31U
DNA 1: CAATCTGAATTCCGGTCTCCC
DNA 2: TGGTGGCTACGACGGGATT

Molecular target: T1, RBFOX1 RRM
Assay: EMSA; HiTS-Eq, 1 nM pool, 10 min; buffer printed only for the single-RNA assays: 10 mM Tris pH 7.5, 150 mM NaCl, 3.4 mM EDTA, 0.001% NP-40, 30 C
Conditions: tags: His6 N-terminal (pET28a); label: 5' 32P
Method in brief: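 Purified wild-type or mutant RbFox RRM at increasing concentrations was equilibrated with 1 nM of 5′-radiolabelled RNA carrying 7 randomized nucleotides for 10 min in 50 µL. Unbound RNA was separated by 8% native PAGE and sequenced. Relative association constants came from read-count changes of each RNA species compared with the control reaction, normalised to the cognate motif.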

Binder	binding signal
B1	0.0112 KA relative to UGCAUGU
B2	0.0153 KA relative to UGCAUGU
B3	0.00871 KA relative to UGCAUGU
B4	0.00941 KA relative to UGCAUGU
B5	0.0337 KA relative to UGCAUGU
B6	0.0154 KA relative to UGCAUGU
B7	0.0218 KA relative to UGCAUGU
B8	0.0103 KA relative to UGCAUGU
B9	0.00935 KA relative to UGCAUGU
B10	0.0104 KA relative to UGCAUGU
B11	0.0121 KA relative to UGCAUGU
B12	0.00251 KA relative to UGCAUGU
B13	0.0106 KA relative to UGCAUGU
B14	0.0246 KA relative to UGCAUGU
B15	0.000204 KA relative to UGCAUGU
B16	0.0151 KA relative to UGCAUGU

Binder	binding signal
B17	0.0146 KA relative to UGCAUGU
B18	0.0174 KA relative to UGCAUGU
B19	0.0192 KA relative to UGCAUGU
B20	0.0142 KA relative to UGCAUGU
B21	0.0111 KA relative to UGCAUGU
B22	0.0196 KA relative to UGCAUGU
B23	0.0195 KA relative to UGCAUGU
B24	0.00579 KA relative to UGCAUGU
B25	0.0182 KA relative to UGCAUGU
B26	0.00769 KA relative to UGCAUGU
B27	0.00494 KA relative to UGCAUGU
B28	0.00784 KA relative to UGCAUGU
B29	0.0158 KA relative to UGCAUGU
B30	0.0295 KA relative to UGCAUGU
B31	0.00313 KA relative to UGCAUGU
